Laboratory results: patent US20160318991A1

Molecular target: Fluorescently labelled FVIII (Oregon Green-FVIII) (UniProt P00451)
Test: cell-based or functional assay

UniProt P00451, sequence (P00451 other isoform, or with tags, fused parts or gaps): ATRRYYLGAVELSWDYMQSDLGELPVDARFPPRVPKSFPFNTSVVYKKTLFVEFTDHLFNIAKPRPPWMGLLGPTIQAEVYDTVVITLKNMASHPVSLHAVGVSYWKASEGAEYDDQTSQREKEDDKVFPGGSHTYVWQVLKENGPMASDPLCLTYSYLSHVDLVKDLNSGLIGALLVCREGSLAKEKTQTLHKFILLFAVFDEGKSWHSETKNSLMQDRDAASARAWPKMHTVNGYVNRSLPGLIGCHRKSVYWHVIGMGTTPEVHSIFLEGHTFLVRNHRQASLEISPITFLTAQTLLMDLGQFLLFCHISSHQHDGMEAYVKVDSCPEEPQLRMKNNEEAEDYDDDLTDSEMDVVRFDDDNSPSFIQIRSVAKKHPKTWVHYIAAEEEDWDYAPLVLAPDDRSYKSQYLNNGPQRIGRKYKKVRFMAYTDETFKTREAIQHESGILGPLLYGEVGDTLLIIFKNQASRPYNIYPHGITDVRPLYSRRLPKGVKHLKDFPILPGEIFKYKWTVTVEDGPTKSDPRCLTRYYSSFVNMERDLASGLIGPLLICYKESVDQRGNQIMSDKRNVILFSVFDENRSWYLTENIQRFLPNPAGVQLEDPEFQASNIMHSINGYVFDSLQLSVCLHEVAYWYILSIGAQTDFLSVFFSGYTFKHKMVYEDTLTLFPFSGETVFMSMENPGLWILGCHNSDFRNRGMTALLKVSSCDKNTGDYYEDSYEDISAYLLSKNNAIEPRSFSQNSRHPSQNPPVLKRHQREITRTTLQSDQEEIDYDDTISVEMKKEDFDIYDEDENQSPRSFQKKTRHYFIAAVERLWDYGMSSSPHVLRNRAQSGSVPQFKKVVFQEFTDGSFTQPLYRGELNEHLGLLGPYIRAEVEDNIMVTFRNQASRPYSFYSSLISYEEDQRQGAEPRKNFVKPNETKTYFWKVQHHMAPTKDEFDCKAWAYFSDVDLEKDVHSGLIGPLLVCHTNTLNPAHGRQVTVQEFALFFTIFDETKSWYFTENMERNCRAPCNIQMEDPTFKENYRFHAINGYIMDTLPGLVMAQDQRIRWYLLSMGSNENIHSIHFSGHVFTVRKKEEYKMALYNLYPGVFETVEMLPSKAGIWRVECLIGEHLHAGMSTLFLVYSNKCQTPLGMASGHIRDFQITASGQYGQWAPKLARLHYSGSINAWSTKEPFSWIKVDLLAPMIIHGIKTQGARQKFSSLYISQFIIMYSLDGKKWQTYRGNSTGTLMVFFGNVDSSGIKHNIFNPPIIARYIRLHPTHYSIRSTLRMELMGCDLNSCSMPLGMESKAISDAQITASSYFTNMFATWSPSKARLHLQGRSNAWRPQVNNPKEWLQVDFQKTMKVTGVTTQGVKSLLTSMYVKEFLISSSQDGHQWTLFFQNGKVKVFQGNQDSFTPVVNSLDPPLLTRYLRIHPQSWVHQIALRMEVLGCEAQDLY

IC50 (nM), inhibition of FVIII uptake in human dendritic cells: 9.8 nM | IC50 (nM), inhibition of FVIII uptake in macrophages: 15.6 nM | Maximal inhibition (%), FVIII uptake in macrophages: 32.6%
Substance: Plasma derived full length VWF, VWF ([…]) (a stretch of the chain, sequence left out) (other; Oregon Green fluorescent label)
